Test results from the supplement of paper PMC10126150.
Sequences with one replicate were seen in a single cluster, so their values are uncertain.

Tested on: ATP
Experiment: switch fluorescence ratio, 500 uM ATP over buffer (Cy3 cluster intensity, sum of 5 cycles each) (fold (ratio)); higher = stronger signal-on switching upon ATP binding; sequences stand for … in TCGTCGGCAGCGTCAGATGTGTATAAGAGACAGTTTTTTTTTTTTTTTTTTTTTTTTT…TC
Conditions: aptamer strand: ATP DNA aptamer (quencher-CACCTGGGGGAGTATTGCGGAGGAAGG + anchor), 100 nM annealed; ATP concentration: 500 uM; one replicate
Outline: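 After annealing to 100 nM quencher-labelled ATP aptamer, Cy3-labelled switching-strand clusters on a modified Illumina MiSeq flow-cell were imaged in selection buffer. A second image followed after 15 min with 500 uM ATP at 22 °C, and five such buffer/ATP cycles were done, each separated by NaOH stripping and re-annealing. The fluorescence ratio, averaged per switch-domain sequence, is summed target-cycle over summed buffer-cycle Cy3 intensity per cluster, with clusters outside 100-1000 RFU excluded.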
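Note: ATP exposure 15 min at 22 °C before imaging.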

Row | Sequence | switch fluorescence ratio
1 | GGTGCTACTG | 1.05
2 | TTCTCGCTTT | 0.987
3 | TTGGGAAGCC | 1.03
4 | TCTTGACCTG | 1.01
5 | GTGGTCCCCG | 0.981
6 | AATTGTATTG | 0.991
7 | GCACTGATGT | 1.02
8 | TATGGTCTAT | 0.981
9 | AAGGATAACG | 1.02
10 | TAGAAGCTGT | 1.01
11 | TATTCGTGGA | 0.997
12 | ACGTCGAGTA | 1.03
13 | CTCACCAGTG | 2.79
14 | GAAACCGGTG | 0.981
15 | CGAGTGTCTG | 1.02
16 | GCTGATAGT | 1.02
17 | GAGTTCACAA | 1.01
18 | CACTAGGGTA | 0.97
19 | TAATATTAGT | 0.987
20 | TTTCCTGATA | 1.03
21 | TTTCCGCCA | 3.91
22 | GAGAGGAGTG | 0.998
23 | CAATGGTACT | 1.05
24 | TTCGTTACGT | 0.993
25 | ACCAACCGGT | 0.983
26 | TTCTGATAC | 1.07

Row | Sequence | switch fluorescence ratio
27 | ATCTCCCGTA | 1.01
28 | AAGGTCAATC | 1.08
29 | AATTTTACTT | 1.13
30 | CGGGGTTTTA | 0.967
31 | GGCTGGCTGC | 0.952
32 | CAATGCCTTG | 1.02
33 | AACTAGCCTT | 1.02
34 | TTTGGGTCCT | 1.01
35 | TACGTTTAAA | 1.02
36 | AATCGCTGAC | 1.87
37 | TAATGGTTAC | 1.03
38 | CCCTCTTGTT | 1
39 | TGAGAGGATA | 1.03
40 | TGATGATCTC | 0.978
41 | ATACTTAATA | 1.05
42 | CTTATAACTT | 0.976
43 | TACACTTTCT | 1.02
44 | TTTCCCCCTC | 2.66
45 | ATTTAAGACT | 0.972
46 | CGCTTATCCC | 1.45
47 | AGCTGGGACA | 1.01
48 | AGAATAGCAT | 1.02
49 | CTAAACGGAC | 1.25
50 | CTGGAGTCAT | 2.04
51 | AACTGGTCAA | 1.05
52 | TGCGGCCAAC | 1.01

Row | Sequence | switch fluorescence ratio
53 | TAAGCGAATT | 1.25
54 | TGTGAAAGTA | 0.998
55 | TAGGAACTAG | 0.989
56 | GTAAGCGAGC | 0.978
57 | GCAACATCAT | 1.03
58 | TTATAATGAG | 1.02
59 | CCTAGGCAGG | 1.29
60 | CTAGTTTAC | 1.01
61 | GCAAGTGAAT | 1.03
62 | GGACAGATCC | 0.954
63 | TGAAAAATAA | 0.98
64 | TTGTCAATGC | 2.1
65 | AAGTACTTCA | 1.22
66 | TTGCTCCTTG | 1.04
67 | TACAGTTTTT | 0.958
68 | AATGTCTCGT | 0.992
69 | ATCAGCCTTA | 0.986
70 | CTTACTAATG | 1.03
71 | TCTGGGCAT | 1.48
72 | ATTTTCTAGT | 1.02
73 | GAGTGGGTCT | 0.973
74 | AACTCGTCAT | 0.975
75 | CACTTTTCTG | 0.998
76 | CTTCTTGTCG | 0.987
77 | ATAAAGAA | 1
78 | AATTGTGAGC | 1.01

Row | Sequence | switch fluorescence ratio
79 | AGCGATGGG | 0.998
80 | CGCTTGGTAG | 0.994
81 | TTGATACGAT | 1.07
82 | AATGCGAAGC | 1.1
83 | CCGGTACCTT | 1.06
84 | CGGGAAGCGA | 1.06
85 | AGGGTGCGCG | 0.972
86 | ATATAAGAAG | 0.991
87 | AAAAAAGCGA | 1.02
88 | AATAGTCTT | 0.962
89 | CAACTCAGGG | 1.04
90 | TACAGAGAGA | 1
91 | CCAGTAAGA | 0.975
92 | GACCCTGGGA | 0.998
93 | GAAGTTGGT | 1.04
94 | GTACACGTGC | 0.989
95 | TGGGCACATT | 0.96
96 | ACGAGAAGAG | 1.05
97 | GACTGACATT | 1.14
98 | TGAGTTCATT | 0.979
99 | CATTATAATA | 1
100 | GCCACAGATG | 1.41
101 | GATAACTTT | 1.04
102 | TAGCAGTTGT | 0.949
103 | GACCATGCAT | 1.02
104 | GAAGCTTTGC | 1.04

Row | Sequence | switch fluorescence ratio
105 | CTTGGCTACT | 1.11
106 | GGACATGAGC | 0.983
107 | GCACTTACAT | 1.3
108 | CAGTTCCGGG | 1.07
109 | AGTACTTGCA | 1.04
110 | GGTATGCATG | 0.914
111 | CGTGTGCCCT | 1.04
112 | GCAAAAACT | 3.37
113 | AGTCTACGAG | 1.01
114 | AGTAGGCTAA | 1.06
115 | TAGACCGTGT | 1.02
116 | TATTAAAAGG | 1.01
117 | ACTCTGGGAA | 1.15
118 | GGATCTTGAT | 0.948
119 | AAAGATGCCT | 1.02
120 | TACCTAGACT | 1.08
121 | AGATGGTCGG | 0.983
122 | AGCCATTGCG | 0.999
123 | GAGACATTGC | 1.05
124 | AGGTCAAATA | 1
125 | CTGGCTGTGC | 1.03
126 | CTGGCAGGCG | 1.04
127 | AGTCCACTCT | 1.03
128 | GAACCCGGGT | 0.918
129 | AATGAGCGAA | 1.02
130 | TAGTTATCAT | 0.998

Row | Sequence | switch fluorescence ratio
131 | TGGAGAGCTG | 1.03
132 | AATGCTTCCG | 1.1
133 | ACCGTCATTA | 1.1
134 | GTTCAGGGGG | 1.14
135 | TTTTTAGCGG | 1.02
136 | GCCAATACGT | 3.11
137 | TCTCAGCTTC | 1.3
138 | CTCGCAGTTT | 1.17
139 | AGGTGAATCT | 0.997
140 | TAATAGTTCA | 1.02
141 | CGGGTGTACG | 1.03
142 | CCCGTTAGTC | 1.07
143 | TACGAGTGCT | 0.982
144 | ACTCCGTTTT | 2.07
145 | AAAGCAGGTG | 2.75
146 | CATCAAGCGA | 2.3
147 | GGGCGAGGCG | 0.955
148 | AAATTGATTC | 1.01
149 | TATAACTTGC | 1.05
150 | TTTTTACTCT | 0.964
151 | GTGCTACCTG | 0.975
152 | TTTTGCGACT | 1.02
153 | CTATCTGACC | 0.999
154 | TGTGACGAGT | 0.972
155 | TACTTAATC | 0.973
156 | GAAGAAAGTT | 0.956

Row | Sequence | switch fluorescence ratio
157 | ACAGCATTGG | 1.06
158 | AAAGATGTTC | 1.06
159 | TACTTTATT | 1.11
160 | CGATATCTTC | 1.01
161 | CGAATTGGCA | 1.02
162 | TTTCGCGTA | 1.04
163 | CATATGGGAG | 0.986
164 | CTATGACGTC | 1.04
165 | TTTGGTATCG | 0.984
166 | CGATCCTCTC | 0.994
167 | AAAATAGGTT | 0.973
168 | CGGAAATCA | 1.01
169 | TGACTCGCCA | 1.18
170 | GGGTTACATA | 1.08
171 | GTTATTCGAT | 1.05
172 | CAAGACCTCG | 0.981
173 | TCTGGTTG | 0.999
174 | CGCGCTCCT | 1.65
175 | TGGCACCTGC | 0.997
176 | CTACGTCATA | 2.31
177 | TCTGTAGGGT | 0.987
178 | GTCCGACGGC | 1.4
179 | GGGGAGCGGA | 0.96
180 | ATCAAGCGGA | 1.01
181 | CAGACCATCC | 2.16
182 | TGAGGTTCAG | 0.958

Row | Sequence | switch fluorescence ratio
183 | CAAGACACTA | 1.09
184 | GGCCGGGTCC | 1.01
185 | GAGGTTCCTG | 0.999
186 | ACGGCAGTTC | 1.07
187 | TGTGATGGAC | 1.27
188 | CTATAAGA | 1.01
189 | GATCTTTGGG | 1
190 | CACATTACTA | 1.34
191 | AACGGAAGCT | 1.06
192 | TTTCGCGGTA | 0.999
193 | TGAATGGAGC | 0.973
194 | CTGGGAGGCC | 1.25
195 | AAATTGGAAA | 0.956
196 | AGGAGCAATA | 6.08
197 | TCTCTTGAGC | 1.06
198 | ATAGTTACGT | 1.03
199 | CCGATACTAG | 1.33
200 | TTAGGCCGCG | 0.998
201 | TTACTCAGAT | 1.02
